{"source": "the supplement of paper PMC8728848", "binders": {"B1": {"name": "DrGRIFIN (Danio rerio), Q6DGJ1 (protein)", "chain": "MTLRFEASCPDGLCPGWSVILKGETPPEASKFEINFLCDRDDRVAFHFNPRFTESDIICNSYMANRWGQEERCNHFPLGVEEPFQIEIYSDNDHFHVYIDKAKVMQYKHRVEDLKTITKLQVVNDVKISSLEITKKLFY"}}, "assay_in_all_cases": "glycan array binding signal (z-score within array); higher = stronger binding", "conditions_in_all_cases": "glycan notation: IUPAC condensed, linker removed", "key": {"[1]": {"target": "GalNAc(b1-4)GlcNAc(b1-2)Man", "summary_of_the_method": "(§1)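 Glycan array binding is given as a within-array Z-score, which can be read as non-binding when negative. The arrays, 3228 of them, came from the Consortium for Functional Glycomics database and were retained only where the protein sequence was available. Z-scores were averaged across arrays of the same protein sequence at different concentrations or buffers and across linkers.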"}, "[2]": {"target": "GalNAc(b1-4)GlcNAc(b1-2)Man(a1-3)[GalNAc(b1-4)GlcNAc(b1-2)Man(a1-6)]Man(b1-4)GlcNAc(b1-4)GlcNAc", "summary_of_the_method": "as §1"}, "[3]": {"target": "GalNAc(b1-4)GlcNAc(b1-3)GalNAc(b1-4)GlcNAc", "summary_of_the_method": "as §1"}, "GalNAc(b1-4)GlcNAc6S": {"target": "GalNAc(b1-4)GlcNAc6S", "summary_of_the_method": "as §1"}, "GalNAc(b1-6)GalNAc": {"target": "GalNAc(b1-6)GalNAc", "summary_of_the_method": "as §1"}, "GalNAc3S(b1-4)GlcNAc": {"target": "GalNAc3S(b1-4)GlcNAc", "summary_of_the_method": "as §1"}, "GalNAc3S(b1-4)GlcNAc3S": {"target": "GalNAc3S(b1-4)GlcNAc3S", "summary_of_the_method": "as §1"}, "[4]": {"target": "GalNAc3S(b1-4)[Fuc(a1-3)]GlcNAc", "summary_of_the_method": "as §1"}, "GalNAc4S6S(b1-4)GlcNAc": {"target": "GalNAc4S6S(b1-4)GlcNAc", "summary_of_the_method": "as §1"}, "GalNAc6S(b1-4)GlcNAc": {"target": "GalNAc6S(b1-4)GlcNAc", "summary_of_the_method": "as §1"}, "Glc(a1-4)Glc": {"target": "Glc(a1-4)Glc", "summary_of_the_method": "as §1"}, "[5]": {"target": "Glc(a1-4)Glc(a1-4)Glc(a1-4)Glc", "summary_of_the_method": "as §1"}, "Glc(a1-6)Glc(a1-6)Glc": {"target": "Glc(a1-6)Glc(a1-6)Glc", "summary_of_the_method": "as §1"}, "[6]": {"target": "Glc(a1-6)Glc(a1-6)Glc(a1-6)Glc", "summary_of_the_method": "as §1"}, "Glc(b1-4)Glc": {"target": "Glc(b1-4)Glc", "summary_of_the_method": "as §1"}, "Glc(b1-6)Glc": {"target": "Glc(b1-6)Glc", "summary_of_the_method": "as §1"}, "GlcA(b1-3)Gal": {"target": "GlcA(b1-3)Gal", "summary_of_the_method": "as §1"}, "GlcA(b1-3)GlcNAc": {"target": "GlcA(b1-3)GlcNAc", "summary_of_the_method": "as §1"}, "GlcA(b1-6)Gal": {"target": "GlcA(b1-6)Gal", "summary_of_the_method": "as §1"}, "[7]": {"target": "GlcA3S(b1-3)Gal(b1-4)GlcNAc(b1-2)Man", "summary_of_the_method": "as §1"}, "[8]": {"target": "GlcA3S(b1-3)Gal(b1-4)GlcNAc(b1-3)Gal(b1-4)Glc", "summary_of_the_method": "as §1"}, "[9]": {"target": "GlcNAc(a1-3)Gal(b1-4)GlcNAc", "summary_of_the_method": "as §1"}, "[10]": {"target": "GlcNAc(a1-4)Gal(b1-3)GlcNAc", "summary_of_the_method": "as §1"}, "[11]": {"target": "GlcNAc(a1-4)Gal(b1-4)GalNAc", "summary_of_the_method": "as §1"}, "[12]": {"target": "GlcNAc(a1-4)Gal(b1-4)GlcNAc", "summary_of_the_method": "as §1"}, "[13]": {"target": "GlcNAc(a1-4)Gal(b1-4)GlcNAc(b1-3)Gal(b1-4)Glc", "summary_of_the_method": "as §1"}, "[14]": {"target": "GlcNAc(a1-4)Gal(b1-4)GlcNAc(b1-3)Gal(b1-4)GlcNAc", "summary_of_the_method": "as §1"}, "[15]": {"target": "GlcNAc(a1-4)Gal(b1-4)GlcNAc(b1-3)Gal(b1-4)GlcNAc(b1-3)Gal(b1-4)GlcNAc", "summary_of_the_method": "as §1"}, "[16]": {"target": "GlcNAc(a1-4)Gal(b1-4)GlcNAc(b1-3)Gal(b1-4)[Fuc(a1-3)]GlcNAc(b1-3)Gal(b1-4)[Fuc(a1-3)]GlcNAc", "summary_of_the_method": "as §1"}, "[17]": {"target": "GlcNAc(a1-6)Gal(b1-4)GlcNAc", "summary_of_the_method": "as §1"}, "[18]": {"target": "GlcNAc(b1-2)Gal(b1-3)GalNAc", "summary_of_the_method": "as §1"}, "[19]": {"target": "GlcNAc(b1-2)Man(a1-3)[GlcNAc(b1-2)Man(a1-6)]Man(b1-4)GlcNAc(b1-4)GlcNAc", "summary_of_the_method": "as §1"}, "[20]": {"target": "GlcNAc(b1-2)Man(a1-3)[GlcNAc(b1-2)Man(a1-6)]Man(b1-4)GlcNAc(b1-4)[Fuc(a1-6)]GlcNAc", "summary_of_the_method": "as §1"}, "[21]": {"target": "GlcNAc(b1-2)Man(a1-3)[GlcNAc(b1-4)][GlcNAc(b1-2)Man(a1-6)]Man(b1-4)GlcNAc(b1-4)GlcNAc", "summary_of_the_method": "as §1"}, "[22]": {"target": "GlcNAc(b1-2)Man(a1-3)[GlcNAc(b1-4)][GlcNAc(b1-2)Man(a1-6)]Man(b1-4)GlcNAc(b1-4)[Fuc(a1-6)]GlcNAc", "summary_of_the_method": "as §1"}, "[23]": {"target": "GlcNAc(b1-2)[GlcNAc(b1-4)]Man(a1-3)[GlcNAc(b1-2)Man(a1-6)]Man(b1-4)GlcNAc(b1-4)GlcNAc", "summary_of_the_method": "as §1"}, "[24]": {"target": "GlcNAc(b1-2)[GlcNAc(b1-4)]Man(a1-3)[GlcNAc(b1-4)][GlcNAc(b1-2)Man(a1-6)]Man(b1-4)GlcNAc(b1-4)GlcNAc", "summary_of_the_method": "as §1"}, "[25]": {"target": "GlcNAc(b1-2)[GlcNAc(b1-4)]Man(a1-3)[GlcNAc(b1-4)][GlcNAc(b1-2)[GlcNAc(b1-6)]Man(a1-6)]Man(b1-4)GlcNAc(b1-4)GlcNAc", "summary_of_the_method": "as §1"}, "[26]": {"target": "GlcNAc(b1-2)[GlcNAc(b1-4)]Man(a1-3)[GlcNAc(b1-4)][GlcNAc(b1-2)[GlcNAc(b1-6)]Man(a1-6)]Man(b1-4)GlcNAc(b1-4)[Fuc(a1-6)]GlcNAc", "summary_of_the_method": "as §1"}, "[27]": {"target": "GlcNAc(b1-2)[GlcNAc(b1-6)]Man(a1-6)[GlcNAc(b1-2)Man(a1-3)]Man(b1-4)GlcNAc(b1-4)GlcNAc", "summary_of_the_method": "as §1"}, "[28]": {"target": "GlcNAc(b1-2)[GlcNAc(b1-6)]Man(a1-6)[GlcNAc(b1-2)Man(a1-3)]Man(b1-4)GlcNAc(b1-4)[Fuc(a1-6)]GlcNAc", "summary_of_the_method": "as §1"}, "[29]": {"target": "GlcNAc(b1-2)[GlcNAc(b1-6)]Man(a1-6)[GlcNAc(b1-4)][GlcNAc(b1-2)Man(a1-3)]Man(b1-4)GlcNAc(b1-4)GlcNAc", "summary_of_the_method": "as §1"}, "GlcNAc(b1-3)Fuc": {"target": "GlcNAc(b1-3)Fuc", "summary_of_the_method": "as §1"}, "GlcNAc(b1-3)Gal": {"target": "GlcNAc(b1-3)Gal", "summary_of_the_method": "as §1"}, "[30]": {"target": "GlcNAc(b1-3)Gal(b1-3)GalNAc", "summary_of_the_method": "as §1"}}, "note": "Some of the results follow."}
{"binder": "B1", "values": [{"measurement": "glycan array binding signal (z-score)", "setting": "[1]", "value": -0.129}, {"measurement": "glycan array binding signal (z-score)", "setting": "[2]", "value": -0.157}, {"measurement": "glycan array binding signal (z-score)", "setting": "[3]", "value": -0.211}, {"measurement": "glycan array binding signal (z-score)", "setting": "GalNAc(b1-4)GlcNAc6S", "value": -0.108}, {"measurement": "glycan array binding signal (z-score)", "setting": "GalNAc(b1-6)GalNAc", "value": -0.185}, {"measurement": "glycan array binding signal (z-score)", "setting": "GalNAc3S(b1-4)GlcNAc", "value": -0.052}, {"measurement": "glycan array binding signal (z-score)", "setting": "GalNAc3S(b1-4)GlcNAc3S", "value": -0.176}, {"measurement": "glycan array binding signal (z-score)", "setting": "[4]", "value": -0.178}, {"measurement": "glycan array binding signal (z-score)", "setting": "GalNAc4S6S(b1-4)GlcNAc", "value": -0.143}, {"measurement": "glycan array binding signal (z-score)", "setting": "GalNAc6S(b1-4)GlcNAc", "value": -0.147}, {"measurement": "glycan array binding signal (z-score)", "setting": "Glc(a1-4)Glc", "value": -0.161}, {"measurement": "glycan array binding signal (z-score)", "setting": "[5]", "value": -0.2}, {"measurement": "glycan array binding signal (z-score)", "setting": "Glc(a1-6)Glc(a1-6)Glc", "value": -0.193}, {"measurement": "glycan array binding signal (z-score)", "setting": "[6]", "value": -0.138}, {"measurement": "glycan array binding signal (z-score)", "setting": "Glc(b1-4)Glc", "value": -0.192}, {"measurement": "glycan array binding signal (z-score)", "setting": "Glc(b1-6)Glc", "value": -0.125}, {"measurement": "glycan array binding signal (z-score)", "setting": "GlcA(b1-3)Gal", "value": -0.117}, {"measurement": "glycan array binding signal (z-score)", "setting": "GlcA(b1-3)GlcNAc", "value": -0.161}, {"measurement": "glycan array binding signal (z-score)", "setting": "GlcA(b1-6)Gal", "value": -0.117}, {"measurement": "glycan array binding signal (z-score)", "setting": "[7]", "value": -0.196}, {"measurement": "glycan array binding signal (z-score)", "setting": "[8]", "value": -0.174}, {"measurement": "glycan array binding signal (z-score)", "setting": "[9]", "value": -0.164}, {"measurement": "glycan array binding signal (z-score)", "setting": "[10]", "value": -0.112}, {"measurement": "glycan array binding signal (z-score)", "setting": "[11]", "value": -0.154}, {"measurement": "glycan array binding signal (z-score)", "setting": "[12]", "value": -0.183}, {"measurement": "glycan array binding signal (z-score)", "setting": "[13]", "value": -0.154}, {"measurement": "glycan array binding signal (z-score)", "setting": "[14]", "value": -0.19}, {"measurement": "glycan array binding signal (z-score)", "setting": "[15]", "value": -0.179}, {"measurement": "glycan array binding signal (z-score)", "setting": "[16]", "value": -0.116}, {"measurement": "glycan array binding signal (z-score)", "setting": "[17]", "value": -0.119}, {"measurement": "glycan array binding signal (z-score)", "setting": "[18]", "value": -0.195}, {"measurement": "glycan array binding signal (z-score)", "setting": "[19]", "value": -0.183}, {"measurement": "glycan array binding signal (z-score)", "setting": "[20]", "value": -0.163}, {"measurement": "glycan array binding signal (z-score)", "setting": "[21]", "value": -0.095}, {"measurement": "glycan array binding signal (z-score)", "setting": "[22]", "value": -0.167}, {"measurement": "glycan array binding signal (z-score)", "setting": "[23]", "value": -0.168}, {"measurement": "glycan array binding signal (z-score)", "setting": "[24]", "value": -0.215}, {"measurement": "glycan array binding signal (z-score)", "setting": "[25]", "value": -0.165}, {"measurement": "glycan array binding signal (z-score)", "setting": "[26]", "value": -0.159}, {"measurement": "glycan array binding signal (z-score)", "setting": "[27]", "value": -0.108}, {"measurement": "glycan array binding signal (z-score)", "setting": "[28]", "value": -0.077}, {"measurement": "glycan array binding signal (z-score)", "setting": "[29]", "value": -0.239}, {"measurement": "glycan array binding signal (z-score)", "setting": "GlcNAc(b1-3)Fuc", "value": -0.197}, {"measurement": "glycan array binding signal (z-score)", "setting": "GlcNAc(b1-3)Gal", "value": -0.08}, {"measurement": "glycan array binding signal (z-score)", "setting": "[30]", "value": -0.171}]}
